Measurements published in PubChem BioAssay AID686979 (National Center for Advancing Translational Sciences (NCATS), 2013).
The whole screen tested about 420,000 compounds, of which about 50,000 (12%) were called active. Inconclusive results, whose numbers are uncertain, are shown with a selection of clear calls. Calls follow the shape of the dose curve; as a rule, active = well fitted inhibition curve with a large enough effect; inconclusive = small, poorly fitted or top-dose-only effect; inactive = flat fitted curve, though single readings scatter. No potency is given beside an inconclusive call; the fits are too rough.

Assay: qHTS for Inhibitors of human tyrosyl-DNA phosphodiesterase 1 (TDP1): qHTS in cells in presence of CPT; also: nearly all actives have a fitted effect of over 55% in size
Conditions: chicken DT40 Tdp1-/-;hTDP1 cells + 20 nM CPT, ATP luminescence, 48 h; activity change, negative = growth inhibition: at 46.2 µM (top of the series) unless noted
Method in brief: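 Chicken DT40 Tdp1-/- cells complemented with human TDP1, 400 cells/well, exposed to compounds plus 20 nM camptothecin for at least 48 h at 37 C; viability read as ATP content by CellTiter-Glo luminescence.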
% is scaled to controls: 0 for no effect and ±100 for the full control effect; potency is read from the fitted curve at half-maximal effect; tags tell the direction and shape of the fitted curve.

| Structure (SMILES) | Potency | activity change, negative = growth inhibition |
| --- | --- | --- |
| CCCOc1ccc(OCCOCCN2CCc3ccccc3C2)cc1 | inconclusive [inhibitor, single point] |  |
| Cn1ncc2c(Nc3cc(Cl)cc(Cl)c3)ncnc21 | inconclusive [inhibitor, single point] |  |
| CCOC(=O)N1CCC(NC(=O)c2cc3sccc3n2CC)CC1 | inconclusive [inhibitor, partial curve] |  |
| COc1ccc(C(=O)NNC(=O)C(=O)Nc2cccc3ccccc23)cc1 | inconclusive [inhibitor, single point] |  |
| COc1ccc(C2=NNC(c3cccnc3)=Nc3ccccc32)cc1 | inconclusive [inhibitor, single point] |  |
| COC(=O)C1=C(C)Nc2nnnn2C1c1ccccc1Cl (stereo not drawn) |  | inactive: -0.011% |
| CCOC(=O)N1CCC(N2C(=O)c3ccccc3C2Nc2ccc(S(=O)(=O)N(CC)CC)cc2)CC1 (stereo not drawn) | inconclusive [inhibitor, single point] |  |
| CNC(=O)N1CCC(C(=O)c2c(C)c(C)c(C)c(C)c2C)CC1 | inconclusive [inhibitor, partial curve, poor fit] |  |
| Cc1cccc(CSCC(=O)NCc2ccc(S(N)(=O)=O)cc2)c1 |  | inactive: 6.39% |
| CN1N=C(C(=O)NC2CCCc3c2cnn3-c2ccc(F)cc2F)CCC1=O (stereo not drawn) |  | inactive: -26.6% |
| O=C(NC1CCCCC1)c1cc(-c2ccccn2)nc2ccccc12 | inconclusive [inhibitor, full curve, poor fit] |  |
| CC(C)c1ccc2c(c1)C(c1ccc(N3CCOCC3)cc1)=NNC(c1cccs1)=N2 | inconclusive [inhibitor, partial curve] |  |
| CCOC(=O)[C@]12CCC=C1N(Cc1ccccc1)C(=O)[C@H](CC(=O)NCCCCc1ccccc1)C2 | inconclusive [inhibitor, single point] |  |
| CN(C)c1ccc(/C=C/c2nccc3ccccc23)cc1 | inconclusive [inhibitor, single point] |  |
| Cc1ccc(/C=C(\C#N)c2nn(-c3ccccc3)c(N)c2C#N)cc1 | inconclusive [inhibitor, single point] |  |
| CCOc1ccc(NC(=S)Nc2cc(C)[nH]n2)cc1 |  | inactive: -18.3% |
| CCN(C(=O)COC(=O)c1ccc(OCc2c(C)noc2C)cc1)c1ccccc1 | inconclusive [inhibitor, partial curve] |  |
| O=C(c1cccc2ccccc12)C1CCCN(C(=O)c2ccc(N3CCOCC3)cc2)C1 (stereo not drawn) | inconclusive [inhibitor, single point] |  |
